# Experimental data reported in the RNAGym collection of RNA variant scans (doi:10.1073/pnas.2313332121).
# This sample is rich in variants without activity.
# B1: TPR 5TU (parent)
# chain: GGAUCUUCUCGAUCUAACAAAAAAGACAAAUCUGCCACAAAGCUUGAGAGCAUCUUCGGAUGCAGAGGCGGCAGCCUUCGGUGGCGCGAUAGCGCCAACGUUCUCAACUAUGACACGCAAAACGCGUGCUCCGUUGAAUGGAGUUUAUCAUG
# Variants of: B1
# Test: polymerase ribozyme fitness, log enrichment relative to wild type (log ratio); higher = more active; in vitro selection for triplet polymerase activity
# Summary of the method: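 Each subunit of a heterodimeric triplet polymerase ribozyme was represented by a PCR-built, transcribed mutant library that underwent triplicate single-round in vitro selection with frozen incubation at −7 °C. Extended constructs were recovered by gel excision, streptavidin-bead capture and RT-PCR, and Illumina sequencing of input and output libraries kept genotypes with ≥10 input reads and ≥1 read per output. Fitness is the logarithm of genotype enrichment relative to wild-type enrichment, from inverse-variance-weighted replicate averages, with a logarithm base of 2.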
row,Variant,polymerase ribozyme fitness (log ratio)
1,GGAUCUUCUCGAUCUAACAAAAAAGACAAAUCUGCCACAAAGCUUGAGAGCAUCUUCGGAUGCAGAGGCGGCAGCCUUCGGUGGCGCGAUAGCACCAACGUUGUCAACUAUGACACGCAAAACGCGUGCUCCGUUGAAUGGAGUUUAUCCUG [G94A C103G A150C],≤ -4.2
2,GGAUCUUCUCGAUCUAACAAAAAAGACAAAUCUGCCACAAAGCUUGAGAGCAUCUUCGGAUGCAGAGGCGGCAGCCUUCGGUGGCGCGAUAGCCCCAACGUUCUCAAUUUUGACACGCAAAACGCGUGCUCCGUCGAAUGGAGUUUAUCAUG [G94C C108U A110U U135C],≤ -4.2
3,GGAUCUUCUCGAUCUAACAAAAAAGACAAAUCUGCCACAAAGCUUGAGAGCAUCUUCGGAUGCAGAGGCGGCAGCCUUCGGUGGCGCGAUAGCACCAACGUGCUCAACUAUGACACGCAAAACGCGUGCUCCGUUGAAUGGAGUUUAUCAUG [G94A U102G],≤ -4.2
4,GGAUCUUCUCGAUCUAACAAAAAAGACAAAUCUGCCACAAAGCUUGAGAGCAUCUUCGGAUGCAGAGGCGGCAGCCUUCGGUGGCGCGAUAGCUACAACGUUCUCAACUAUGACACGCAAAACGCGUGCUCCGUUGAAUGGAGUUUAUCAUA [G94U C95A G152A],-3.85
5,GGAUCUUCUCGAUCUAACAAAAAAGACAAAUCUGCCACAAAGCUUGAGAGCAUCUUCGGAUGCAGAGGCGGCAGCCUUCGGUGGCGCGAUAGCACCAACGUUCUCAACUAUGACACGCAAAACGCGUGCUCCGUUGCAUGGAGUUUAUCAUG [G94A A137C],-3.2
6,GGAUCUUCUCGAUCUAACAAAAAAGACAAAUCUGCCACAAAGCUUGAGAGCAUCUUCGGAUGCAGAGGCGGCAGCCUUCGGUGGCGCGAUAGCCCCAACGUUCUCAACUAUGACACUCAAAACGCGUGCUCCGUUGAAUGGAGUUUAUCAUG [G94C G117U],0.0157
7,GGAUCUUCUCGAUCUAACAAAAAAGACAAAUCUGCCACAAAGCUUGAGAGCAUCUUCGGAUGCAGAGGCGGCAGCCUUCGGUGGCGCGAUAGCCCCAACGUUCUCAACUAUGACACGCAAAACGCGUGCUCCGUUGCAUGGAGUUUAUUAUG [G94C A137C C149U],-3.76
8,GGAUCUUCUCGAUCUAACAAAAAAGACAAAUCUGCCACAAAGCUUGAGAGCAUCUUCGGAUGCAGAGGCGGCAGCCUUCGGUGGCGCGAUAGCUCCAUGGUUCUCAACUAUGACACGCAAAACGCGUGCUCCGUUGAAUGGAGUUUGUCAUG [G94U A98U C99G A147G],-3.16
9,GGAUCUUCUCGAUCUAACAAAAAAGACAAAUCUGCCACAAAGCUUGAGAGCAUCUUCGGAUGCAGAGGCGGCAGCCUUCGGUGGCGCGAUAGCCCCAACGUUCUCAACUAUGACACGCAAAACGCGUGGUCCGUUGAAUGGAGUUUAUCAUG [G94C C129G],-3.39
10,GGAUCUUCUCGAUCUAACAAAAAAGACAAAUCUGCCACAAAGCUUGAGAGCAUCUUCGGAUGCAGAGGCGGCAGCCUUCGGUGGCGCGAUAGCACCAACGUUCUCAACUAUGACACGCAAAACGCGUGCUCCGUUGAAUGGAUUUUAUCAUG [G94A G143U],-3.57
11,GGAUCUUCUCGAUCUAACAAAAAAGACAAAUCUGCCACAAAGCUUGAGAGCAUCUUCGGAUGCAGAGGCGGCAGCCUUCGGUGGCGCGAUAGCCCCAACGUUCUCAACUAUGACACGCAAAACGCGUGCUCCGUUGAAUGGAGCUUAUCGUG [G94C U144C A150G],≤ -4.2
12,GGAUCUUCUCGAUCUAACAAAAAAGACAAAUCUGCCACAAAGCUUGAGAGCAUCUUCGGAUGCAGAGGCGGCAGCCUUCGGUGGCGCGAUAGCCCCAACGUUCUCAACUAUGACACGCAAAACGCGUGCUCCAUUGAAUGGAGUUUAUCAUG [G94C G133A],-4.02
13,GGAUCUUCUCGAUCUAACAAAAAAGACAAAUCUGCCACAAAGCUUGAGAGCAUCUUCGGAUGCAGAGGCGGCAGCCUUCGGUGGCGCGAUAGCACCAACGGUCUCAACUAUGACACGCAAAACGCGUGCUCCGUUGAAUGGAGUUUAACAUG [G94A U101G U148A],-4.03
14,GGAUCUUCUCGAUCUAACAAAAAAGACAAAUCUGCCACAAAGCUUGAGAGCAUCUUCGGAUGCAGAGGCGGCAGCCUUCGGUGGCGCGAUAGCCCCAACGAUCUCAACUAUGACACGCAAAACGCGUGCUCCGUUGAAUGGAGUUUAUCAUA [G94C U101A G152A],-2.72
15,GGAUCUUCUCGAUCUAACAAAAAAGACAAAUCUGCCACAAAGCUUGAGAGCAUCUUCGGAUGCAGAGGCGGCAGCCUUCGGUGGCGCGAUAGCACCAACGUUCUCAACUAUGCCACGCAAAAUGCGUGCUCCGUUGAAUGGAGUUUAUAAUG [G94A A113C C123U C149A],≤ -4.2
16,GGAUCUUCUCGAUCUAACAAAAAAGACAAAUCUGCCACAAAGCUUGAGAGCAUCUUCGGAUGCAGAGGCGGCAGCCUUCGGUGGCGCGAUAGCCCCAACGUUCUCAACUAUGACAUGCAAAACGCGUGCUCCGUUGAAUGCAGUUUAUCAUG [G94C C116U G141C],≤ -4.2
17,GGAUCUUCUCGAUCUAACAAAAAAGACAAAUCUGCCACAAAGCUUGAGAGCAUCUUCGGAUGCAGAGGCGGCAGCCUUCGGUGGCGCGAUAGCACCAACGUUCUCAACUAUGACAGGCAAAAGGCGUGCUCCGUUGAAUGGAGUUUAUCAUG [G94A C116G C123G],0.258
18,GGAUCUUCUCGAUCUAACAAAAAAGACAAAUCUGCCACAAAGCUUGAGAGCAUCUUCGGAUGCAGAGGCGGCAGCCUUCGGUGGCGCGAUAGCCCCAACGUUCGCAACUAUGACACGCAAAACGCGUGCUCCGUUGAAUGGAGUUUAUCAUG [G94C U104G],-1.24
19,GGAUCUUCUCGAUCUAACAAAAAAGACAAAUCUGCCACAAAGCUUGAGAGCAUCUUCGGAUGCAGAGGCGGCAGCCUUCGGUGGCGCGAUAGCCCCGACGUUCUCAACUAUGACAAGCAAAACGCGUGCUCCGUUGAAUGGAGUUUAUCAUG [G94C A97G C116A],-0.587
